Data published in the supplement of paper PMC4967469.
pIC50: −log10 of the molar value. By IC50 is meant the dose at which the fit gives 50% viability; a fit beyond the top or the lowest dose is shown as a bound at that dose. AUC sums up the same curve from the lowest dose to the 256-fold higher top dose; values near 1 show little effect. For some of these results: A top dose marked as inferred comes from the curve model; the source does not state it.

Legend:
Assay in all cases: Viability of human cancer cell lines after 72 h of drug (GDSC screen)
[1] = compound: CC(C)N(CCCNC(=O)Nc1ccc(C(C)(C)C)cc1)C[C@H]1O[C@@H](n2cc(Br)c3c(N)ncnc32)[C@H](O)[C@@H]1O [SGC0946]; details: top dose 0.5 µM; top dose inferred
Method: (§1)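 Human cancer cell lines in 384-well plates, medium with 10% serum, drug for 72 h over a 256-fold dose range (nine 2-fold or five 4-fold steps up to the top dose). Adherent lines were fixed and stained with the nucleic acid dye Syto60, suspension lines read with resazurin; signal relative to control wells, capped at 0 and 100%. One two-parameter sigmoid per drug and line, fitted in a mixed model over all curves with the slope shared within a line.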

[2] = compound: CCC/C=C/C=C/C(=O)O[C@H]1/C(=C/C(=O)OC)C[C@H]2C[C@H]([C@@H](C)O)OC(=O)C[C@H](O)C[C@@H]3C[C@H](OC(C)=O)C(C)(C)[C@](O)(C[C@@H]4C/C(=C/C(=O)OC)C[C@H](/C=C/C(C)(C)[C@]1(O)O2)O4)O3 [Bryostatin 1]; details: top dose 0.008 µM; top dose inferred
Method: as §1

[3] = compound: COc1ccc(COc2ccc(Cc3cnc(N)nc3N)cc2OC)cc1 [GW-2580]; details: top dose 20 µM; top dose inferred
Method: as §1

[4] = compound: Cc1cc(Nc2cc(N3CCN(C)CC3)nc(Sc3ccc(NC(=O)C4CC4)cc3)n2)n[nH]1 [VX-680]; details: top dose 2 µM
Method: as §1

[5] = compound: Nc1cccc2c1CN(C1CCC(=O)NC1=O)C2=O [Lenalidomide]; details: top dose 5 µM; top dose inferred
Method: as §1

SK-ES-1 (Ewing sarcoma, semi-adherent)
AUC [1]: 0.983
pIC50 [1]: < 6.30
AUC [2]: 0.972
pIC50 [2]: < 8.10
AUC [3]: 0.979
pIC50 [3]: < 4.70
AUC [4]: 0.455
pIC50 [4]: 7.03
AUC [5]: 0.983
pIC50 [5]: < 5.30

SK-MEL-2 (melanoma, adherent)
AUC [1]: 0.986
pIC50 [1]: < 6.30
AUC [2]: 0.97
pIC50 [2]: < 8.10
AUC [3]: 0.98
pIC50 [3]: < 4.70
AUC [4]: 0.98
pIC50 [4]: < 5.70
AUC [5]: 0.979
pIC50 [5]: < 5.30

SK-N-FI (neuroblastoma, adherent)
AUC [1]: 0.987
pIC50 [1]: < 6.30
AUC [2]: 0.988
pIC50 [2]: < 8.10
AUC [3]: 0.982
pIC50 [3]: < 4.70
AUC [4]: 0.93
pIC50 [4]: < 5.70
AUC [5]: 0.983
pIC50 [5]: < 5.30

SNU-C2B (large intestine, adherent)
AUC [1]: 0.978
pIC50 [1]: < 6.30
AUC [2]: 0.921
pIC50 [2]: < 8.10
AUC [3]: 0.973
pIC50 [3]: < 4.70
AUC [4]: 0.93
pIC50 [4]: < 5.70
AUC [5]: 0.98
pIC50 [5]: < 5.30

ST486 (Burkitt lymphoma, suspension)
AUC [1]: 0.989
pIC50 [1]: < 6.30
AUC [2]: 0.99
pIC50 [2]: < 8.10
AUC [3]: 0.99
pIC50 [3]: < 4.70
AUC [4]: 0.596
pIC50 [4]: 6.65
AUC [5]: 0.99
pIC50 [5]: < 5.30

SU-DHL-16 (B-cell lymphoma, suspension)
AUC [1]: 0.996
pIC50 [1]: < 6.30
AUC [2]: 0.982
pIC50 [2]: < 8.10
AUC [3]: 0.996
pIC50 [3]: < 4.70
AUC [4]: 0.435
pIC50 [4]: 7.06
AUC [5]: 0.993
pIC50 [5]: < 5.30

SUP-M2 (anaplastic large cell lymphoma, suspension)
AUC [1]: 0.994
pIC50 [1]: < 6.30
AUC [2]: 0.992
pIC50 [2]: < 8.10
AUC [3]: 0.993
pIC50 [3]: < 4.70
AUC [4]: 0.351
pIC50 [4]: 7.27
AUC [5]: 0.992
pIC50 [5]: < 5.30

SUP-T1 (T-cell lymphoblastic leukaemia, suspension)
AUC [1]: 0.989
pIC50 [1]: < 6.30
AUC [2]: 0.988
pIC50 [2]: < 8.10
AUC [3]: 0.979
pIC50 [3]: < 4.70
AUC [4]: 0.99
pIC50 [4]: < 5.70
AUC [5]: 0.96
pIC50 [5]: < 5.30

SW684 (fibrosarcoma, adherent)
AUC [1]: 0.978
pIC50 [1]: < 6.30
AUC [2]: 0.895
pIC50 [2]: < 8.10
AUC [3]: 0.971
pIC50 [3]: < 4.70
AUC [4]: 0.982
pIC50 [4]: < 5.70
AUC [5]: 0.983
pIC50 [5]: < 5.30

SW954 (urogenital system, adherent)
AUC [1]: 0.983
pIC50 [1]: < 6.30
AUC [2]: 0.954
pIC50 [2]: < 8.10
AUC [3]: 0.979
pIC50 [3]: < 4.70
AUC [4]: 0.48
pIC50 [4]: 6.96
AUC [5]: 0.982
pIC50 [5]: < 5.30

TE-5 (oesophagus, adherent)
AUC [1]: 0.982
pIC50 [1]: < 6.30
AUC [2]: 0.972
pIC50 [2]: < 8.10
AUC [3]: 0.984
pIC50 [3]: < 4.70
AUC [4]: 0.958
pIC50 [4]: < 5.70
AUC [5]: 0.983
pIC50 [5]: < 5.30

TE-11 (oesophagus, adherent)
AUC [1]: 0.989
pIC50 [1]: < 6.30
AUC [2]: 0.874
pIC50 [2]: 8.18
AUC [3]: 0.989
pIC50 [3]: < 4.70
AUC [4]: 0.482
pIC50 [4]: 6.95
AUC [5]: 0.973
pIC50 [5]: < 5.30

TUR (B-cell lymphoma, suspension)
AUC [1]: 0.978
pIC50 [1]: < 6.30
AUC [2]: 0.979
pIC50 [2]: < 8.10
AUC [3]: 0.974
pIC50 [3]: < 4.70
AUC [4]: 0.988
pIC50 [4]: < 5.70
AUC [5]: 0.98
pIC50 [5]: < 5.30

UACC-257 (melanoma, adherent)
AUC [1]: 0.98
pIC50 [1]: < 6.30
AUC [2]: 0.967
pIC50 [2]: < 8.10
AUC [3]: 0.956
pIC50 [3]: < 4.70
AUC [4]: 0.888
pIC50 [4]: < 5.70
AUC [5]: 0.981
pIC50 [5]: < 5.30

VA-ES-BJ (soft tissue, adherent)
AUC [1]: 0.984
pIC50 [1]: < 6.30
AUC [2]: 0.937
pIC50 [2]: < 8.10
AUC [3]: 0.984
pIC50 [3]: < 4.70
AUC [4]: 0.579
pIC50 [4]: 6.68
AUC [5]: 0.983
pIC50 [5]: < 5.30

WIL2-NS (lymphoid neoplasm, suspension)
AUC [1]: 0.992
pIC50 [1]: < 6.30
AUC [2]: 0.979
pIC50 [2]: < 8.10
AUC [3]: 0.988
pIC50 [3]: < 4.70
AUC [4]: 0.911
pIC50 [4]: 5.72
AUC [5]: 0.975
pIC50 [5]: < 5.30

WSU-NHL (lymphoid neoplasm, suspension)
AUC [1]: 0.99
pIC50 [1]: < 6.30
AUC [2]: 0.982
pIC50 [2]: < 8.10
AUC [3]: 0.99
pIC50 [3]: < 4.70
AUC [4]: 0.99
pIC50 [4]: < 5.70
AUC [5]: 0.973
pIC50 [5]: < 5.30

no-10 (glioma, adherent)
AUC [1]: 0.98
pIC50 [1]: < 6.30
AUC [2]: 0.94
pIC50 [2]: < 8.10
AUC [3]: 0.979
pIC50 [3]: < 4.70
AUC [4]: 0.962
pIC50 [4]: < 5.70
AUC [5]: 0.981
pIC50 [5]: < 5.30

no-11 (glioma, adherent)
AUC [1]: 0.98
pIC50 [1]: < 6.30
AUC [2]: 0.956
pIC50 [2]: < 8.10
AUC [3]: 0.972
pIC50 [3]: < 4.70
AUC [4]: 0.939
pIC50 [4]: < 5.70
AUC [5]: 0.977
pIC50 [5]: < 5.30
